According to PubChem BioAssay AID588549 (Broad Institute, 2011):
Hit rate of the full screen: of about 360,000 compounds, about 780 (0.22%) were called active. The shares of active, inactive and inconclusive entries below differ from those in the screen. Rule as the data show it: active = inhibition above about 8.5% (passing the limit was not always enough); inconclusive = no clear call, values can overlap the other calls.

What follows are molecules tested on Mycobacterium tuberculosis FadD28 fatty-acid-AMP ligase (assay: inhibitors of FadD28 bisubstrate probe binding, primary screen, biochemical, fluorescence polarization, single point (AID 588549)). Details: at 12.5 µM, hits give high values.
In the case of `O=C(NNC(=S)Nc1ccc(Cl)cc1Cl)c1ccc(N2CCOCC2)c([N+](=O)[O-])c1`, the inhibition is reported as inconclusive: 7.27%.
In the case of `COc1ccc(-c2cc(C)no2)cc1S(=O)(=O)N(C)c1cccc(C)c1`, the inhibition is reported as inconclusive: 44.7%.
For `O=C(N/N=C/c1ccc(O)c([N+](=O)[O-])c1)C1CC1(c1ccccc1)c1ccccc1` (stereo not given), the inhibition was inconclusive: 7.66%.
`Cc1cccc(NC(=O)CN2C(=O)N/C(=C\c3ccccc3OCc3ccc(C(=O)O)cc3)C2=O)c1` was tested, and the inhibition was active: 41.8%.
`O=C(Nc1ccc2[nH]ncc2c1)C1CCC1` was tested, and the inhibition was inactive: -2.86%.
`CN(CC(=O)N1CCc2ccccc21)S(=O)(=O)c1cccc2cccnc12` was tested, and the inhibition was inconclusive: 5.1%.
`COc1ccc(CCNC(=O)c2ccccc2NS(=O)(=O)c2c(F)cccc2F)cc1` was tested, and the inhibition was inconclusive: 6.36%.
For `CCc1cccc(NC(=O)CN2C(=O)NC3(CCCCCCC3)C2=O)c1`, the inhibition was inconclusive: 6.25%.
In the case of `Cn1c(O)c(C2=NN(C(=O)CCl)C(c3ccccc3)C2)c(=O)n(C)c1=O` (stereo not given), the inhibition is reported as inactive: -0.808%.
`O=c1[nH][nH]c2c(N=Cc3ccccc3O)ccc(F)c12` was tested, and the inhibition was active: 16%.
For `O=C1CCCC(O)=C1N=Nc1ccc(C(=O)O)cc1`, the inhibition was inconclusive: 5.52%.
For `N#C/C(=N/Nc1ccccc1F)C(=N)N1CCOCC1`, the inhibition was inactive: 0.387%.
For `CCC(=NC(C)c1ccccc1)c1c(O)[nH]c(=O)[nH]c1=O` (stereo not given), the inhibition was inactive: -1.58%.
`Cc1ccc(C(=O)OCC(=O)Nc2ccc3c(c2)OCO3)cc1S(=O)(=O)N1CCOCC1` was tested, and the inhibition was inconclusive: 7.71%.
`O=C(CSc1nc2ccsc2c(=O)n1Cc1ccc(C(=O)O)cc1)NCc1ccco1` was tested, and the inhibition was inconclusive: 5%.
In the case of `S=c1[nH]nc(-c2cc(-c3ccco3)[nH]n2)n1-c1ccccc1Cl`, the inhibition is reported as inconclusive: 5.46%.
For `CCc1ccc(NC(=O)c2ccc(NC(=O)C3CCCO3)cc2)cc1` (stereo not given), the inhibition was inactive: -2.52%.
`N#CC(C#N)=C1NC(N)=C(C#N)C(c2ccccc2)=C1C#N` was tested, and the inhibition was inconclusive: 7.7%.
For `Cc1ccc(N=Cc2ccc(N(C)C)cc2)cc1C`, the inhibition was inactive: -2.88%.
With `CCOc1cc(/C=C2/NC(=O)N(CC(=O)Nc3cccc(C)c3)C2=O)ccc1O` the inhibition was active: 16.4%.
For `O=C(O)c1ccc(N/N=C/c2ccc(-c3cccc(Cl)c3)o2)cc1`, the inhibition was active: 9.92%.
`O=[N+]([O-])c1ccc2[nH]c(=S)sc2c1` was tested, and the inhibition was inconclusive: 4.57%.
With `CCOC(=O)C(=Cc1ccc(N(C)C)cc1)C(=O)c1ccccc1` the inhibition was inactive: -3.68%.
`Cn1cccc1-c1cc(C(=O)N/N=C/c2cc(Br)ccc2O)[nH]n1` was tested, and the inhibition was inactive: -6.49%.
With `COc1cccc2c(C)c(C(=O)O)[nH]c12` the inhibition was active: 15.1%.
